Data published in patent publication US6020121A (priority 1996, dated 2000).
At least one structure is not confirmed: it was looked up by name or label, or the drawing left a doubt. Where a SMILES comes first, the peptide text is derived from it. The star is where a group is joined. Cbz = O=C(OCc1ccccc1)*; Bz = O=C(c1ccccc1)*

Experiments:
V8 Protease = assay: V8 protease activity; type: cell-based, Staphylococcus aureus; settings: Table 4; vs untreated wild type Agr+ S. aureus
[1] = system: S. typhimurium chemotaxis; assay: Chemotaxis (swarm agar plates); type: cell-based; set-up: key: [++]: compounds that increase Salmonella typhimurium #chemotaxis compared to controls.; N: Compounds lacking significant effect in the indicated tests; settings: Table 4; Salmonella typhimurium
Excerpt: Chemotaxis: Motility has been studied in a variety of bacteria. The molecular mechanisms of motility have been best characterized in E. coli and S. typhimurium but analogs of the molecular components have been detected in both Gram-negative and Gram-positive organisms (Morgan et al., J. Bacteriol. 175:133-140 (1993)). A two-component regulatory system composed of either cheA/cheY or cheA/cheB (Stewart and Dahlquist, Chem. Rev. 87:997-1025 (1987); MacNab, Motility and Chemotaxis, pp. 732-759, In F. C. Neidhardt, et al., ed., Escherichia coli and Salmonella typhimurium: cellular and molecular biology, American Society for Microbiology, Washington, D.C. (1987)), is central to the ability of these organisms to detect and respond appropriately to chemical substances. Such response can be detected on minimal swarm agar plates containing a chemoattractant (sugars or amino acids) (J. S. Parkinson, J. Bacteriol. 126:758-770 (1976)), or a capillary assay system, in which chemoattractant is placed in a capillary tube and immersed in a liquid bacterial culture. Bacteria capable of chemotaxis will swim into the capillary and can be detected by performing viable cell counts (Adler, J. Gen. Microbiol. 74:77-91 (1973)). Bacteria are to be tested with capillaries or swarms containing a known chemoattractant, with chemoattractant and test compound in the assay medium, and with no chemoattractant but with test compound in the assay medium to determine the extent of suppression of chemotaxis caused by a given test compound. Inhibitors of the signal transduction components involved in chemotaxis should modulate the ability of the bacteria to swim into the capillary tube, thereby changing the viable cell count, or alter the diameter of bacterial swarms.

Lipase = Lipase production; type: cell-based, Staphylococcus aureus; settings: Table 4; vs untreated wild type Agr+ S. aureus
RNAIII = RNAIII Northern Blot; settings: Table 4; vs untreated wild type Agr+ S. aureus
[2] = system: B. subtilis strain 168 sporulation; assay: Sporulation; type: cell-based, Bacillus subtilis; settings: Table 4
Excerpt: Sporulation: Sporulation is a well-characterized event in many organisms, including Bacillus subtilis (spoIIJ/spo0A or spoIIJ/spo0F, Losick et al., Annu. Rev. Genet. 20:625-669 (1986); Smith, The initiation of sporulation,pp. 185-210, In I. Smith et al. eds., Regulation of procaryotic development, American Society for Microbiology, Washington, D.C. (1989)). It can be induced in various media (Leighton and Doi, J. Biol. Chem. 246:3189-3195 (1971); Piggot and Curtis, J. Bacteriol. 169:1260-1266 (1987)), and can be easily assayed (Nicholson and Setlow, Sporulation, germination, and outgrowth, pp. 391-429, In C. R. Harwood and S. M. Cutting eds., Molecular biological methods for Bacillus, John Wiley and Sons, Ltd., Chichester, West Sussex, England (1990)). Briefly, by heating the cells to 80-85° C. for 15-20 min, undifferentiated cells are killed while spores survive. Therefore, by determining the difference in viable cell count of control cultures versus heat treated cultures, it is possible to calculate the percent sporulation for a given culture or condition. Compounds that inhibit the signal transduction system responsible for the induction of sporulation will lower the viable cell count of the heat treated culture.

alpha-hemolysin = type: cell-based, Staphylococcus aureus

Row | Structure (SMILES) | V8 Protease expression (V8 Protease) | Chemotaxis [1] | Lipase expression (Lipase) | RNAIII expression (RNAIII) | Sporulation [2] | Alpha-Hemolysin expression (alpha-hemolysin)
1 | CC(=O)OC1CCC2(C)C(CCC3C4CC5OC6(CCC(C)CO6)C(C)C5C(C)=C4CC32)C1 (stereo not shown) [Compound 6] | [++] (Compounds that increase expression of RNAIII, alphahemolysin, lipase, or V8 protease by more than 50% compared to expression levels observed in untreated wild type controls (Agr+ S. aureus cells).) | N | N | [++] (Compounds that increase expression of RNAIII, alphahemolysin, lipase, or V8 protease by more than 50% compared to expression levels observed in untreated wild type controls (Agr+ S. aureus cells).) | N | 
2 | CC(C)CC(NC(=O)OCc1ccccc1)C(=O)NC(Cc1ccc(O)cc1)C(N)=O (stereo not drawn) [Compound 7] (Cbz-Leu-Tyr-NH2; configuration not given here) | N | N | N | ++ (Compounds that reduce expression of RNAIII, alphahemolysin, lipase, o V8 protease by more than 50% compared to expression levels observed in untreated wild type controls (Agr+ S. aureus cells).) | N | ++
3 | CC(C)CC(NC(=O)c1ccccc1)C(=O)NC(Cc1ccc(O)cc1)C(N)=O (stereo not drawn) [Compound 8] (Bz-Leu-Tyr-NH2; configuration not given here) | + (Compounds that reduce expression of RNAIII, alphahemolysin, lipase, or V8 protease by 25% to 50% compared to production levels observed in untreated wild type controls (Agr+ S. aureus cells).) | N | N | ++ (Compounds that reduce expression of RNAIII, alphahemolysin, lipase, o V8 protease by more than 50% compared to expression levels observed in untreated wild type controls (Agr+ S. aureus cells).) | N | N
4 | CCCc1c(C(=O)Nc2cccc(C(F)(F)F)c2)cnn1-c1ccccc1 [Compound 9] | + (Compounds that reduce expression of RNAIII, alphahemolysin, lipase, or V8 protease by 25% to 50% compared to production levels observed in untreated wild type controls (Agr+ S. aureus cells).) | N | + (Compounds that reduce expression of RNAIII, alphahemolysin, lipase, or V8 protease by 25% to 50% compared to production levels observed in untreated wild type controls (Agr+ S. aureus cells).) | + (Compounds that reduce expression of RNAIII, alphahemolysin, lipase, or V8 protease by 25% to 50% compared to production levels observed in untreated wild type controls (Agr+ S. aureus cells).) | N | ++
5 | O=C(Nc1ccccc1)OC(Cc1ccccc1)C(F)(F)F (stereo not shown) [Compound 10] | + (Compounds that reduce expression of RNAIII, alphahemolysin, lipase, or V8 protease by 25% to 50% compared to production levels observed in untreated wild type controls (Agr+ S. aureus cells).) | N | + (Compounds that reduce expression of RNAIII, alphahemolysin, lipase, or V8 protease by 25% to 50% compared to production levels observed in untreated wild type controls (Agr+ S. aureus cells).) | ++ (Compounds that reduce expression of RNAIII, alphahemolysin, lipase, o V8 protease by more than 50% compared to expression levels observed in untreated wild type controls (Agr+ S. aureus cells).) | N | ++
6 | CC(CS)=NOC(=O)c1c(-c2ccccc2)noc1C [Compound 11] | + (Compounds that reduce expression of RNAIII, alphahemolysin, lipase, or V8 protease by 25% to 50% compared to production levels observed in untreated wild type controls (Agr+ S. aureus cells).) | [++] | + (Compounds that reduce expression of RNAIII, alphahemolysin, lipase, or V8 protease by 25% to 50% compared to production levels observed in untreated wild type controls (Agr+ S. aureus cells).) | ++ (Compounds that reduce expression of RNAIII, alphahemolysin, lipase, o V8 protease by more than 50% compared to expression levels observed in untreated wild type controls (Agr+ S. aureus cells).) | N | ++
7 | Cc1cc(C(F)(F)F)cc(N(C)NC2OC(=O)c3ccccc32)n1 (stereo not shown) [Compound 12] | N |  | + (Compounds that reduce expression of RNAIII, alphahemolysin, lipase, or V8 protease by 25% to 50% compared to production levels observed in untreated wild type controls (Agr+ S. aureus cells).) | ++ (Compounds that reduce expression of RNAIII, alphahemolysin, lipase, o V8 protease by more than 50% compared to expression levels observed in untreated wild type controls (Agr+ S. aureus cells).) | N | ++
8 | Cc1ccc(NN=C(C#N)C(=O)c2cc(C)nn2C(C)(C)C)cc1 [Compound 13] | + (Compounds that reduce expression of RNAIII, alphahemolysin, lipase, or V8 protease by 25% to 50% compared to production levels observed in untreated wild type controls (Agr+ S. aureus cells).) | N | ++ (Compounds that reduce expression of RNAIII, alphahemolysin, lipase, o V8 protease by more than 50% compared to expression levels observed in untreated wild type controls (Agr+ S. aureus cells).) | ++ (Compounds that reduce expression of RNAIII, alphahemolysin, lipase, o V8 protease by more than 50% compared to expression levels observed in untreated wild type controls (Agr+ S. aureus cells).) | N | ++
9 | O=S(=O)(Nc1cc(C(F)(F)F)cc(C(F)(F)F)c1)c1cccc2nsnc12 [Compound 14] | + (Compounds that reduce expression of RNAIII, alphahemolysin, lipase, or V8 protease by 25% to 50% compared to production levels observed in untreated wild type controls (Agr+ S. aureus cells).) | N | ++ (Compounds that reduce expression of RNAIII, alphahemolysin, lipase, o V8 protease by more than 50% compared to expression levels observed in untreated wild type controls (Agr+ S. aureus cells).) | ++ (Compounds that reduce expression of RNAIII, alphahemolysin, lipase, o V8 protease by more than 50% compared to expression levels observed in untreated wild type controls (Agr+ S. aureus cells).) | ++ (compounds that decrease B. subtilis sporulation by more than 50%) | ++
10 | O=C(O)/C=C/c1ccc(Sc2ccc(Br)cc2)c([N+](=O)[O-])c1 [Compound 16] | N | N | ++ (Compounds that reduce expression of RNAIII, alphahemolysin, lipase, o V8 protease by more than 50% compared to expression levels observed in untreated wild type controls (Agr+ S. aureus cells).) | ++ (Compounds that reduce expression of RNAIII, alphahemolysin, lipase, o V8 protease by more than 50% compared to expression levels observed in untreated wild type controls (Agr+ S. aureus cells).) | N | ++
11 | CN(C)/C=C/C(=O)c1sc(SCc2ccc(Cl)cc2)c2c1CC(C)(C)CC2=O [Compound 17] | N | N | + (Compounds that reduce expression of RNAIII, alphahemolysin, lipase, or V8 protease by 25% to 50% compared to production levels observed in untreated wild type controls (Agr+ S. aureus cells).) | ++ (Compounds that reduce expression of RNAIII, alphahemolysin, lipase, o V8 protease by more than 50% compared to expression levels observed in untreated wild type controls (Agr+ S. aureus cells).) | N | ++
